Several values for one entry are separate records, joined by “and”; a condition that tells them apart may be missing. Identical values can stand only once. Among all 360,000 compounds or so, about 2,600 (0.72%) were called active. The shares of active, inactive and inconclusive entries below differ from those in the screen. Calls follow the shape of the dose curve; as a rule, active = well fitted inhibition curve with a large enough effect; inconclusive = small, poorly fitted or top-dose-only effect; inactive = no such curve, though single readings can be large or run the other way. Potencies of inconclusive entries are doubtful fits and often do not repeat.
Test: Primary qHTS for Inhibitors of ATXN expression; also: nearly all actives have a fitted effect of over 55% in size
Settings: HEK-293 ATXN2-luciferase reporter, luminescence, 24 h; activity change, negative = inhibition: at 57 µM (top of the series)
From the text: University of Utah School of Medicine, Salt Lake City, Utah
Spinocerebellar ataxia type 2 (SCA2) is a multisystem neurodegenerative disease caused by a dominantly acting mutation leading to expansion of a polyQ domain in the ataxin-2 protein (ATXN2). SCA2 patients develop progressive ataxia and later lose function in other neuronal systems. Prominent parkinsonian signs develop in some patients. Like many neurodegenerative disorders, no symptomatic or disease-modifying treatments are known.
The primary objective of the proposed research is to identify compounds inhibiting ATXN2 expression and to test them for efficacy in SCA2 mouse models. We have developed a cell-based assay paired with an in vivo mouse model using identical luciferase expression constructs. This approach takes advantage of an ATXN2-luciferase transgene, with the luciferase gene flanked by the upstream and downstream portions of the ATXN2 gene. Here we describe a 5-7 dose quantitative high thoroughput screen (qHTS) for compounds lowering ATXN2 expression. We screened the NIH Molecular Libraries Small Molecule Repository (MLSMR) and NCGC's mechanistically annotated (MIPE) and drug repurposing (NPC) collections of compounds for lowering expression of an ATXN2-luciferase reporter in HEK-293 cells. The assay is a multiplexed cell viability assay to ensure target reduction in the absence of cytotoxicity. Secondary qHTS assays included a CMV-luciferase reporter expressed in HEK-293 cells as well as a biochemical assay using recombinant luciferase to detect inhibitors of the reporter enzyme. Compounds that inhibit ATXN2 expression but is not cytotoxic were selected for confirmatory and secondary screens.
PROTOCOL TABLE (as described by Inglese J, Shamu CE and Guy RK. 2007)
SEQUENCE No. (e.g., 1, 2, 3, etc.); […] (e.g., Cells, Incubation, Reagent, etc.); VALUE; DESCRIPTION.
1; Cells; 4 uL; white, solid bottom, 1536-well Greiner assay plate.
2; Incubation; 2 hr; 37 degree C in 5% humidified CO2.
3; Compounds; 23 nL; Kalypsis pintool (Wako USA) equipped with a 1536-well pin head.
4; Incubation; 24 hr; 37 degree C in 5% humidified CO2.
5; Reagent; 1 uL; Gly-Phe-7-Amino-4-trifluoromethylcoumarin.
6; Incubation; 30 min; 37 degree C in 5% humidified CO2.
7; Detection; Fluorescence; ViewLux plate reader (PerkinElmer).
8; Reagent; 3 uL; SteadyGlo luciferase solution (Promega).
9; Incubation; 5 min; room temperature.
10; Detection; Luminescence; ViewLux plate reader (PerkinElmer).
NOTES (numbers refer to Sequence numbers above)
1. S2 cells expressing ATXN2-luciferase reporter were suspended in phenol-red free DMEM and dispensed in assay plates using a Multidrop Combi dispenser (Thermo Fisher Scientific).
2. Assay plates were incubated. Evaporation was prevented by covering assay plates with metal lids containing holes to allow gas diffusion.
3. Compounds were added in a dose response manner with the final concentrations of 57, 11.4, 2.28, 0.46, 0.091, 0.018, 0.0037 uM. Vehicle-only plates, with DMSO being pin-transferred to columns 5-48, were inserted uniformly at the beginning and the end of each library to monitor and record any shifts in assay performance.
5. 125 uM Gly-Phe-7-Amino-4-trifluoromethylcoumarin (MP Biomedicals) working concentration was used at a final concentration of 25 uM.
7. To assess cell viability; the assay plates were read using the ViewLux high-throughput CCD imager (PerkinElmer), wherein single end-point fluorescence measurement was acquired (excitation 405/10; emission 540/25 nm).
8. Detection reagent SteadyGlo Luciferase (Promega) was added to the assay plate.
10. Luminescence is then measured on the ViewLux imager equipped with a clear emission filter using a 2 sec exposure. All screening operations were performed on a fully integrated robotic system (Kalypsys) containing one RX-130 and two RX-90 anthropomorphic robotic arms (Staubli).
[…]
% is scaled to controls: 0 for no effect and ±100 for the full control effect; potency is read from the fitted curve at half-maximal effect; tags tell the direction and shape of the fitted curve.

SMILES | Potency | activity change, negative = inhibition
C[C@@H]1CN([C@H](C)CO)S(=O)(=O)c2ccc(C#Cc3ccccc3F)cc2O[C@H]1CN(C)C(=O)c1ccc2c(c1)OCO2 | inconclusive: 35.5 µM [inhibitor, single point] | 
CC(=O)N/C(=C\c1ccccc1)C(=O)OCc1ccccc1 | inactive | 
COc1cccc(NC(=O)N(C)C[C@H]2Oc3cc(C#Cc4ccncc4)ccc3S(=O)(=O)N([C@H](C)CO)C[C@H]2C)c1 | inconclusive: 39.8 µM [inhibitor, single point] | 
Cc1ccc(Sc2c([N+](=O)[O-])c(=O)n(C)c3ccccc23)cc1 |  | inconclusive: -78.2% [inhibitor]
Cc1ccc(CC2(OCCN(C)C)CCC(C(C)(C)C)CC2)cc1 (centres undefined) | inconclusive: 37.7 µM [inhibitor, single point] | 
Cn1c(/N=C/c2c(O)ccc3ccccc23)nc2ccccc21 | inconclusive: 2.82 µM [inhibitor, single point] | 
O=C(CSc1nnc(SCc2ccc(Cl)cc2)s1)N/N=C/c1c[nH]c2ccccc12 | inconclusive: 39.8 µM [inhibitor, single point] | 
CCCCC(=O)NC(c1ccccc1)c1ccc2cccnc2c1O (centres undefined) | inconclusive: 25.1 µM [inhibitor, single point] | 
Cn1c(=O)c2cc(NC(=O)CCc3ccc4c(c3)OCO4)ccc2n1Cc1ccc(F)cc1 | inconclusive: 5.01 µM [inhibitor, partial curve, poor fit] | 
CCOC(=O)C1=C(O)c2ccccc2C(=O)/C1=C\c1ccc(C)cc1 | inconclusive: 35.5 µM [inhibitor, single point] | 
Cc1cc(Cl)ccc1Oc1nc(-c2ccc(F)cc2)ccc1C#N | inconclusive: 17.8 µM [inhibitor, partial curve, poor fit] | 
CC(C)(CO)CNC(=O)CCc1nnc(-c2ccc(-c3ccccc3)cc2)o1 | inconclusive: 1.89 µM [inhibitor, partial curve, poor fit] | 
CCN(CC)S(=O)(=O)c1ccc(C(O)=C(C#N)c2nc3ccccc3n2C)cc1 | inconclusive: 39.8 µM [inhibitor, partial curve, poor fit] | 
C[C@@H]1CCCCCCCCC(=O)OCCN[C@H](C)CCCCCCCCC(=O)OCCN[C@H](C)CCCCCCCCC(=O)OCCN1 | inconclusive: 20 µM [inhibitor, partial curve] | 
Cc1cc(C)c2c(c1)-c1c(ssc1=S)C(C)(C)N2C(=O)CSc1nncn1C | inconclusive: 35.5 µM [inhibitor, single point] | 
N#Cc1cc2c(nc1SC1CC(=O)N(c3ccccc3)C1=O)CCC2 (centres undefined) | inconclusive: 0.134 µM [inhibitor, full curve, poor fit] | 
NCCNc1cccc2ccccc12 | inconclusive: 35.5 µM [inhibitor, single point] | 
CN(C(=O)C1CCCN(c2ncnc3c2nc2n3CCCCC2)C1)c1cccc(Cl)c1 (centres undefined) | inactive | 
CSCCC1NC(=S)N(Cc2ccccc2)C1=O (centres undefined) | inconclusive: 28.2 µM [inhibitor, single point] | 
CCCCCCSc1ccc(-c2nc3ccc(C)cn3c2NCc2ccccc2)cc1OC | inconclusive: 28.2 µM [inhibitor, single point] and inconclusive: 39.8 µM [inhibitor, partial curve, poor fit] | 
COc1cc(-c2nc(C(=O)NCC3CCCO3)cc3c2[nH]c2ccccc23)cc(OC)c1OC (centres undefined) | inconclusive: 25.1 µM [inhibitor, partial curve, poor fit] | 
CCc1c(O)cc(O)c(C(=O)c2ccc(OCCN3CCOCC3)c(OC)c2)c1CC(=O)N(CCOC)CCOC | active: 1.09 µM | 

SMILES | Potency | activity change, negative = inhibition
Cc1ccc(CN(Cc2ccco2)C(=O)COc2c(C)cc(C)cc2C)cc1 | inconclusive: 39.8 µM [inhibitor, single point] | 
Cc1noc(C)c1CSCC(=O)Nc1ccccc1N1CCCC1 | inactive | 
Cc1nc(C(=O)NNC(=O)c2ccccc2)c(C(F)(F)F)o1 | inactive | 
Cc1noc(C)c1C(=O)Nc1sc(C)c(C)c1C#N | inconclusive: 35.5 µM [inhibitor, partial curve, poor fit] | 
CC(C)=CC(=O)O[C@@H]1Cc2cc3ccc(=O)oc3cc2OC1(C)C | inconclusive: 12.6 µM [inhibitor, partial curve, poor fit] | 
C=CCn1c(O)c(N=NC(=S)Nc2cccc(C)c2)c2ccccc21 | inconclusive: 10 µM [inhibitor, partial curve] | 
Cc1csc(NC(=O)COCC(=O)O)c1-c1nc2ccccc2s1 | inconclusive: 12.6 µM [inhibitor, partial curve, poor fit] | 
OCCN=c1cc(-c2ccccc2)oc2ccc(Cl)cc12 | inactive | 
Cn1c(=O)oc2cc(S(=O)(=O)N3CCC(C(=O)N4CC=C(c5ccccc5)CC4)CC3)ccc21 | inconclusive: 14.1 µM [inhibitor, partial curve, poor fit] | 
CCC12CN3CC(C)(CN(C1)C3c1ccc(O)cc1O)C2=O (centres undefined) | inactive | 
COc1cccc(OCC(=O)NNC(=S)Nc2ccc(Cl)cc2Cl)c1 |  | inactive: 7.17% [at 11.3 µM]
Cc1ccc(NC(=O)C2CCCN(c3ncnc4c3nc3n4CCCCC3)C2)cc1F (centres undefined) | inconclusive: 39.8 µM [inhibitor, single point] | 
CCN1CCN(C(=O)c2ccc3nc(-c4ccccc4)c(-c4ccccc4)nc3c2)CC1 | inactive | 
Cc1cc(NC(=O)CCCN2C(=O)/C(=C/c3ccccc3Cl)SC2=S)no1 | inconclusive: 28.2 µM [inhibitor, partial curve, poor fit] | 
NC(=O)c1ccccc1N=Cc1cccnc1 | inactive | 
OC(c1cc(C(F)(F)F)nc2c(C(F)(F)F)cccc12)C1CCCCN1 (centres undefined) | inconclusive: 39.8 µM [inhibitor, single point] | 
COC(=O)COc1cc(OCC(=O)OC)c2c(C)c(Cl)c(=O)oc2c1 | inactive | 
c1ccc(C[n+]2cccc3c4ccccc4ccc32)cc1 | inconclusive: 15.8 µM [inhibitor, partial curve] | 
CC(C)(CNC(=S)NCCc1ccccc1)CNC(=S)NCCc1ccccc1 | inconclusive: 31.6 µM [inhibitor, single point] | 
Cc1ccc(Nc2cc(C)nc3nc(Cc4ccc(Cl)cc4)nn23)cc1 | active: 14.1 µM | 
CC(C)(C)c1ccc(S(=O)(=O)NC(=O)C2(C)CCN2C(=O)Cc2cccs2)cc1 (centres undefined) | inactive | 
Cc1cc2ccccn2c1C(=O)c1cccc(S(=O)(=O)N2CCOCC2)c1 | inconclusive: 28.2 µM [inhibitor, partial curve, poor fit] | 

SMILES | Potency | activity change, negative = inhibition
c1ccc(-c2noc(-c3cccs3)n2)nc1 | inconclusive: 11.2 µM [inhibitor, partial curve, poor fit] | 
Nc1cccc(-c2nc3cc(S(=O)(=O)c4ccc5oc(-c6cccc(N)c6)nc5c4)ccc3o2)c1 | inconclusive: 2 µM [inhibitor, single point] | 
Cc1cc(NC(=O)CS(=O)(=O)c2cn(Cc3cccc(Br)c3)c3ccccc23)no1 | inconclusive: 39.8 µM [inhibitor, single point] | 
CCOC(=O)c1c(S(=O)(=O)N2CCC(C(=O)N3CCN(c4cccc(C)c4C)CC3)CC2)c(C)n(C)c1C | inconclusive: 28.2 µM [inhibitor, partial curve] | 
COC(/C(=N/O)c1ccc(Cl)cc1)c1ccccc1 (centres undefined) | inconclusive: 39.8 µM [inhibitor, single point] | 
COc1ccc(N2C(=O)C3C(C2=O)C(C(=O)c2ccc(Cl)cc2)N2CCCC32)cc1 (centres undefined) | inconclusive: 39.8 µM [inhibitor, single point] | 
CC1CCCN(CCOCCOc2ccc(Cl)cc2Br)C1 (centres undefined) | inconclusive: 28.2 µM [inhibitor, single point] | 
CC(C)Oc1cccc(NC(=O)C2CCN(S(=O)(=O)Cc3ccccc3)CC2)c1 | inactive | 
CCc1noc(-c2ccc(NC(C)c3ccccc3)c([N+](=O)[O-])c2)n1 (centres undefined) | inactive | 
O=S(=O)(Nc1cccc(Cl)c1)c1ccc2[nH]c3c(c2c1)CCCCCC3 | inconclusive: 39.8 µM [inhibitor, single point] | 
Cc1c(NC(=O)/C(C#N)=C/c2ccc(-c3ccc(Cl)cc3)o2)c(=O)n(-c2ccccc2)n1C | inconclusive: 22.4 µM [inhibitor, single point] | 
COc1ccc(C(=O)Nc2ccccc2C(=O)NC(C(=O)NCc2ccco2)C(C)C)cc1 (centres undefined) | inconclusive: 35.5 µM [inhibitor, single point] | 
COc1ccc(/C=C/c2nc3ccccc3n2C)cc1 | inconclusive: 8.44 µM [inhibitor, partial curve, poor fit] | 
O=C(COc1ccc(Cl)cc1)OCc1cc(=O)n2nc(-c3cccs3)sc2n1 | inactive | 
CC(=O)c1ccc(NC(=O)C[n+]2ccc(N(C)C)cc2)cc1 | inactive | 
CCCCNC(=O)C1(C)CCC(=O)N1CCOc1ccccc1 (centres undefined) | inactive | 
FC(F)Oc1ccc(NC(=S)NC2CCSc3ccccc32)cc1 (centres undefined) | inconclusive: 39.8 µM [inhibitor, single point] | 
Cc1ccc(C)c(S(=O)(=O)N2CCN(C(=O)[C@@H]3CCCN3C(=O)c3cccs3)CC2)c1 | inconclusive: 6.31 µM [inhibitor, single point] | 
CCc1cc2c(N3CCN(c4ccccc4)CC3)ncnc2s1 | inconclusive: 28.2 µM [inhibitor, partial curve, poor fit] | 
CC1CCCCC1NC(=O)/C(C#N)=C/c1ccccc1F (centres undefined) | inconclusive: 31.6 µM [inhibitor, single point] | 
